In the supplement of paper PMC11417369:
± gives the standard deviation of the averaged measurements. The list shows a part of the results.

These sequences were tested on PfAP2-EXP AP2 domain (GST-tagged) (assay: gcPBM binding intensity (ln(normalized median fluorescence intensity)); higher = stronger DNA binding).
Procedure, shortened: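 Binding of GST-tagged P. falciparum DNA-binding domains, expressed in E. coli and used at about 25 μg on average, was carried out for 1 h in 1× PBS containing 1% milk, 0.2 mg/ml BSA, 0.5% salmon testes DNA and 0.03% Triton X-100. The target was an Agilent 4 × 180k array of primer-extended double-stranded 36-bp intergenic genomic probes plus negative controls, read with Alexa488 anti-GST antibody at 488 nm. Binding intensity is the highest Masliner-normalised natural-log median intensity across replicate spots of either probe orientation.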

| Sequence | gcPBM binding intensity (ln) |
| --- | --- |
| CATAATACAGATAACACACACAATTATACATAAAAT [CACACA_site5742] | 8.77 ± 0.35 |
| ATAGTATCTGGTAGCTGTACGAGTCGTAGAGAGTAG [XGTACX_site2546] | 9.14 ± 0.37 |
| TTATTATTTCTTAGTAGTACTATATAATTTTTTTTT [XGTACX_site1847] | 8.48 ± 0.34 |
| GGAAAATTATCAATAGCATGCAAAATGTGAATATTA [TGCATGCA_site901] | 9.59 ± 0.59 |
| ATATATCTGTATGGCACACACGGATAAATATATATA [CACACA_site4668] | 8.7 ± 0.3 |
| TATATTTGTACATGATATTTTTTTTTTCTTTTAAAA [CACACA_negctrl_site754] | 8.46 ± 0.32 |
| TGTATTTAGAAACATACACACATATTAAGTTTACAT [CACACA_site5689] | 8.29 ± 0.41 |
| GCCAAAATATAATTTACACACTTATTAAATAATTAT [CACACA_site236] | 8.61 ± 0.14 |
| AGAATAATACAAAAATGTACATTAATAAAAAGATAG [XGTACX_site780] | 8.99 ± 0.42 |
| TTTCCTCATTTTATCATACACACTTATTTATATGTG [CACACA_site900] | 8.64 ± 0.42 |
| ATTGAATATGGATATGTGCACATATGTATATAAGTA | 9.2 ± 0.25 |
| ATATATATACTGTGTACACACATATGTATTTATATA [CACACA_site4600] | 8.71 ± 0.057 |
| AAAACATTGTTGAACTGTTTTATTTATAAATATAAG [XGTACX_negctrl_site393] | 8.23 ± 0.4 |
| TTTGTTTAAATTAAATGTACATAAAGAATAATATAT [XGTACX_site5093] | 8.83 ± 0.24 |
| TGCTTTATTATTTATTGTACATGTAAAATGAGAGAG [XGTACX_site2288] | 8.8 ± 0.35 |
| TCGTGTTAAACTTTTACACACAAACTTGCAATAATT [CACACA_site7745] | 8.65 ± 0.27 |
| TAATAACTACAAAAAAAAAAGAAAAATAGAAAAAGG [CACACA_negctrl_site1102] | 8.54 ± 0.66 |
| AGAAGGTAAATAATTTACCCATATATATAAATATAT [GTGCAC_negctrl_site631] | 8.27 ± 0.43 |
| AATTATATGAAATAAACACACATATGTAATATTACA [CACACA_site1928] | 8.56 ± 0.43 |

| Sequence | gcPBM binding intensity (ln) |
| --- | --- |
| TTTCTTAAAATGTTATGTACATATTTCGTTTCAAAG [XGTACX_site6102] | 8.63 ± 0.41 |
| TCTTTTTAATTTATATGTACTTATATTAATTATAAG [XGTACX_site7524] | 8.38 ± 0.35 |
| ATATATTTCAAAGGGGTGCAGGCATATTTAAGCAAA | 9.02 |
| TTAATAAAAGCCCATGCACACCTTAGAAAGTTTTAT [CACACA_site8003] | 8.43 ± 0.45 |
| TGAGCTTCAACAATATGTACATAAAATATATTACAT [XGTACX_site4763] | 8.66 ± 0.33 |
| GTATTATAGTATAATACACACCCAAATATTAAAAAG [CACACA_site7404] | 8.81 ± 0.41 |
| GAAATAAGTTAAAATAGTACGTAGTGTTCCTTAAGT [XGTACX_site6557] | 8.62 ± 0.42 |
| TAAATAATATCCCTTTGTACGTATTTTTTTTTATTA [XGTACX_site7303] | 8.65 ± 0.39 |
| CGTTATATATGTATTACATGCAATATATGTACGTAA [TGCATGCA_site274] | 8.68 ± 0.16 |
| TTAAAAATAATATATTGTACACATACTTATTTTAAT [XGTACX_site1348] | 8.32 ± 0.4 |
| TTAGGAAAACAAAAATGTACGCATATATATTATTGA [XGTACX_site8288] | 8.58 ± 0.3 |
| GTTTATTCATCATACGGTACACATAAATAATATATA [XGTACX_site6931] | 8.78 ± 0.32 |
| AAGACTTCTCCATATACACACACCAACAAATATAAA [CACACA_site2779] | 8.82 ± 0.54 |
| TTTTTCTTTTGATGTTGTACATATATATCATATAAT [XGTACX_site1189] | 8.61 ± 0.34 |
| GTGCATATACAAATATGTACTTAAACGTTTTTTTTT [XGTACX_site7362] | 8.77 ± 0.14 |
| ATTTTTTTTTTTTTTTTTTGGTTTTCTTTAGGAGTT [CACACA_negctrl_site1258] | 8.13 ± 0.48 |
| TTCGTTTAAATCAAGTGTACATATTATATATAATAT [XGTACX_site7599] | 8.67 ± 0.37 |
| GATGAATAAATCAAAGCACACATACACCCACATATA [CACACA_site7986] | 8.79 ± 0.67 |
| TAATAATAATTATATACACACATGTATATTATATTT [CACACA_site1501] | 8.16 ± 0.24 |

| Sequence | gcPBM binding intensity (ln) |
| --- | --- |
| ATTTAAATATATTATTGTACATATACCTAATAAGAA [XGTACX_site6655] | 8.54 ± 0.26 |
| ACTCCTATATAAATGAACCATATTCATAATATATAT [CACACA_negctrl_site1636] | 8.41 ± 0.35 |
| AAATGAAAGAATTAAAGTACATTTATATAATTTTAA [XGTACX_site3540] | 8.29 ± 0.3 |
| AAGAGAAAAACATACACACACAACAAAATATGTATA [CACACA_site2719] | 8.52 ± 0.6 |
| TGTATAATATATATATGTACTTATGTATAATATTAT [XGTACX_site4328] | 8.34 ± 0.35 |
| TGCATAAAAGTAAAAACATGCATGCCGTGGTATCTT [TGCATGCA_site664] | 9.23 ± 0.4 |
| AAGATATCTAAGGAAATTAAACTACCAAAATATATA [TGCATGCA_negctrl_site338] | 8.39 ± 0.42 |
| TTTTTATGGATATTTATATTATATTATGATTAAAAA [TGCATGCA_negctrl_site204] | 8.09 ± 0.4 |
| GACATATAAATATACACACATACGTAAGTATATTAA [CACACA_site1790] | 8.24 ± 0.39 |
| CTTTATAATATTTGTTGTACACAAATATAACATATT [XGTACX_site709] | 8.64 ± 0.37 |
| AATAATACAAAAGTTCAACAAAAAAAAAAAAAAAAT [CACACA_negctrl_site952] | 8.25 ± 0.64 |
| AATATATTTATAAGCACACACTAATAAACACAGACA [CACACA_site4377] | 8.88 ± 0.43 |
| GTACATAATTATTATGCACACATATTTTTATGTATT [CACACA_site8132] | 8.47 ± 0.17 |
| AAATATATATATATATATATATATGTGTGTGTATAT [GTGCAC_negctrl_site1] | 8.7 ± 0.18 |
| TTTCAAAAGTAATACTGTACTTATTTTTATGATTTA [XGTACX_site4184] | 8.32 ± 0.29 |
| TTATACATAAATTTTGTACACACAAAAAAAAAAAAG [CACACA_site8374] | 8.53 ± 0.34 |
| ACATATATATATATATATATATATATATTACATTTA [CACACA_negctrl_site627] | 8.91 ± 0.028 |
| GAATTTTTTTAATGTTGTACTTTTTTTTTTTTTTCT [XGTACX_site648] | 8.54 ± 0.5 |
